US20230414781A1 (BLISS BIOPHARMACEUTICAL HANGZHOU, published 2023)

Assays:
[1] = biological target: T1, B7-H3 on B7-H3-expressing cancer cells (UniProt Q5ZPR3 29-534, limits assumed); experiment: FACS on U87 (glioma) cells
T1 construct: whole, on cells; Endogenous expression on tumour cell lines; also called B7-H3 expressing cells; CD276
T1 sequence (looked up): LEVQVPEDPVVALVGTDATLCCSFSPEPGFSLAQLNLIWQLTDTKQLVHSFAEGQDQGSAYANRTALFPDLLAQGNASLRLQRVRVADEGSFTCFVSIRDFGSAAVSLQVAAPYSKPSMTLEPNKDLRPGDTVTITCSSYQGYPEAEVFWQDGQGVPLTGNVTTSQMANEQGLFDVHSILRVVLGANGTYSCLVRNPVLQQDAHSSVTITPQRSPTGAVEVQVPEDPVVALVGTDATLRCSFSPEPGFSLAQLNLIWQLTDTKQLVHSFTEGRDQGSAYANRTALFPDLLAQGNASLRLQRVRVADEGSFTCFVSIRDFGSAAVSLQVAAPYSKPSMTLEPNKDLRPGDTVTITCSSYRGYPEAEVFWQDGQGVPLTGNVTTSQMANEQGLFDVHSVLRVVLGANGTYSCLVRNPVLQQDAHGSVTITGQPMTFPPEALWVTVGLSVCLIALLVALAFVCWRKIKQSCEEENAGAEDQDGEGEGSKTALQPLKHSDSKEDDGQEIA
Protocol: (§1) Screening for B7-H3-expressing cells were performed using FACS with 27B4H4L3 antibody and MFI of 27B4H4L3 to those cells shown in Table 2. FACS assay was also used to exam and compare the binding capabilities of the 27B4H4L3 antibody, BH73 antibody, 27B4H4L3-MMAE and BH73-Eribulin to B7-H3-expressing cells. To perform the assay, target cells and samples were incubated at 4° C. for 1 h. After wash, samples and secondary antibody (goat pAb to human IgG (FITC) (Abcam, ab97224)) were incubated. FACS was performed on […] (BD, Accuri C6 Plus) and mean fluorescence intensity (MFI) was reported. Three cell lines (U87MG, BT-474 and HT-29) representing B7-H3 high- and low-expressing cells were used to compare binding capacities of different antibody constructs and ADCs.

[2] = biological target: T1, B7-H3 on B7-H3-expressing cancer cells; experiment: FACS on HT-29 (colon) cells
Protocol: as §1

[3] = biological target: T1, B7-H3 on B7-H3-expressing cancer cells; experiment: FACS on BT-474 (breast) cells
Protocol: as §1

B1: BH73 antibody (antibody)
heavy: EVQLVQSGAEVKKPGESLKISCKASGYTFTTYWIGWVRQMPGKGLEWMGIIYPGDGGSRYSPSFQGQVTISADKSISTAYLQWSSLKASDTAMYYCARGGNYISFPMYYWGQGTLVTVSSASTKGPSVFPLAPCSRSTSESTAALGCLVKDYFPEPVTVSWNSGALTSGVHTFPAVLQSSGLYSLSSVVTVPSSNFGTQTYTCNVDHKPSNTKVDKTVEPPKSDCKTKTVE[human IgG1 Fc not printed]
light: EIVMTQSPATLSVSPGERATLSCKASRGVSTALAWYQQKPGQAPRLLIYWASTRATGIPARFSGSGSGTEFTLTISSLQSEDFAVYYCQQHYDTPYTFGQGTKLEIKRTVAAPSVFIFPPSDEQLKSGTASVVCLLNNFYPREAKVQWKVDNALQSGNSQESVTEQDSKDSTYSLSSTLTLSKADYEKHKVYACEVTHQGLSSPVTKSFNRGEC
notes: also called clone BH73
MFI [1]: 333000 MFI
MFI [2]: 71500 MFI
MFI [3]: 133000 MFI

B2: BH73-MMAE (antibody, DAR 2)
heavy: B1 heavy
light: B1 light
modifications: MC-Val-Cit-PAB-MMAE drug-linker on cysteines of partially reduced inter-chain disulfide bonds; predominantly DAR2, minor DAR0 and DAR4; positions not given
notes: predominantly DAR2; also called ADC made of BH73 antibody
MFI [1]: 321000 MFI
MFI [2]: 71300 MFI
